From PubChem BioAssay AID1508642 (National Center for Advancing Translational Sciences (NCATS), 2021)
About 200 (0.47%) of roughly 43,000 compounds were called active. Roughly 12% stayed inconclusive and do not appear here. Calls follow the shape of the dose curve; as a rule, active = well fitted cell-killing curve with a large enough effect; inconclusive = small, poorly fitted or top-dose-only effect, or effect the other way; inactive = flat fitted curve, though single readings scatter. Some of the results follow.

Assay: Cell viability qHTS assay in S16 Pmp22-F2sN cells; also: nearly all actives have a fitted effect of over 65% in size
Conditions: S16 Pmp22-F2sN Schwann cells viability, CellTiter-Glo, 24 h; series mostly up to 57.5 µM; activity change, negative = cytotoxicity: at the top concentration
In short: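 Viability was measured by CellTiter-Glo luminescence (15 min, room temperature). This followed 24 h at 37 °C of compound exposure (23 nL pin transfer) in S16 Pmp22-F2sN Schwann cells, 500-1,000 per well.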
% is scaled to controls: 0 for no effect and ±100 for the full control effect.

| Compound | activity change, negative = cytotoxicity |
| --- | --- |
| Cc1cccc(-n2ccnc2SCC(=O)Nc2ccc3c(c2)OCO3)c1 | inactive: -1.54% |
| O=C(Nc1cccc(F)c1)C1CCN(c2nc3ccccc3[nH]2)CC1 | inactive: 14.4% |
| CCc1cccc(NC(=O)CCS(=O)(=O)c2ccc3nc(C)sc3c2)c1 | inactive: -10.8% |
| CCc1ccc(-n2nc(C)c3c(C)cc(=O)n(CC(=O)Nc4ccccc4C(=O)OC)c32)cc1 | inactive: 3.38% |
| CCCCOc1ccc(C(=O)N/C(=C\c2ccc(Br)cc2)C(=O)NC2CCCCC2)cc1 | inactive: -3.21% |
| CSCCC(NS(=O)(=O)c1ccc2c(c1)oc(=O)n2C)C(=O)N1CCN(c2ccc(F)cc2)CC1 (stereo unspecified) | inactive: -0.36% |
| Cc1c(Cl)cccc1NC(=O)Cn1cc2c(n1)CCCC2 | inactive: 1.08% |
| Cc1oc2c(c(C)cc3oc(=O)c(CC(=O)NCc4ccccc4)c(C)c32)c1C | inactive: 11.8% |
| CCOC(=O)c1cc(-c2ccccc2)n(-c2cccc(C(=O)Nc3cccc(C(C)=O)c3)c2)c1C | inactive: -1.87% |
| COc1cccc(N2CCN(C(=O)CN3C(=O)COc4ccc(S(=O)(=O)N5CCC(C)CC5)cc43)CC2)c1 | inactive: 18.7% |
| COc1ccc(C(=O)NCC(c2cccnc2)N2CCc3ccccc32)cc1OC (stereo unspecified) | inactive: -26.6% |
| CCCCN(CCCNC(=O)c1c(C)oc2nc[nH]c(=O)c12)Cc1ccccc1 | inactive: 16.2% |
| Cc1ccc(NC(=O)Cn2cc(S(=O)(=O)N3CCC(C)CC3)c3ccccc3c2=O)c(Br)c1 | inactive: 0.917% |
| COc1ccc(-c2nnc(SCC(=O)N(C)Cc3ccccc3)o2)cc1OC | inactive: 18.4% |
| CNC(=O)c1c(NC(=O)c2ccc(S(=O)(=O)N3CCCCC3C)cc2)sc2c1CCC2 (stereo unspecified) | inactive: -9.11% |
| Cc1ccc(Nc2c(-c3cccnc3)nc3ccc(Br)cn23)cc1 | inactive: 29.9% |
| Cc1ccc(CNC(=O)Cn2c(=O)n(Cc3ccc(F)cc3)c(=O)c3sc4ccccc4c32)cc1 | inactive: 1.53% |
| CCOC(=O)c1cccc2c1N[C@@H](c1ccc(F)cc1)[C@H]1CC=C[C@@H]21 | inactive: -3.36% |
| Cc1ccc(CCNC(=O)c2ccc3c(=O)n(-c4ccccc4)c(=O)[nH]c3c2)cc1 | inactive: 3.14% |
| Cn1cc(S(=O)(=O)N2CCCCC2)cc1C(=O)Nc1cccc(C#N)c1 | inactive: -0.972% |
| CCCN(C(=O)Cn1ncc2c([nH]c3ccc(C)cc32)c1=O)c1ccccc1C | inactive: -1.86% |
| COc1cccc(N2CC(NC(=O)/C=C\c3ccc(OC)c(OC)c3)CC2=O)c1 (stereo unspecified) | inactive: 3.46% |
| CCC(C)NC(=O)CN1C(=O)COc2ccc(S(=O)(=O)N3CCOCC3)cc21 (stereo unspecified) | inactive: 0.267% |
| CCOc1ccccc1NC(=O)c1c(NCc2sccc2C)sc2c1CCC(C)C2 (stereo unspecified) | inactive: 7.16% |

| Compound | activity change, negative = cytotoxicity |
| --- | --- |
| O=C(Nc1ccc(Cl)cc1)N1CCC(c2ccccc2)C1 (stereo unspecified) | inactive: -16.3% |
| COc1ccc(N2CC(NC(=O)COc3ccc4ccccc4c3)CC2=O)cc1OC (stereo unspecified) | inactive: 5.24% |
| CCN1C(=O)C(Cc2nc3ccccc3c(=O)n2-c2ccc(OC)cc2)c2ccccc21 (stereo unspecified) | inactive: 3.25% |
| COc1ccc(NC(=O)Cn2cc(S(=O)(=O)Cc3ccc(F)cc3)c3ccccc32)cc1OC | inactive: 2.45% |
| CCOC(=O)C1CCC(CN(Cc2cccc(Br)c2)S(=O)(=O)c2ccc(Cl)cc2)CC1 (stereo unspecified) | inactive: -7.45% |
| CCC(C)NC(=O)c1sc2nc(C)c(C(=O)Nc3ccc(C)cc3C)c(-c3ccccc3Cl)c2c1N (stereo unspecified) | inactive: -6.82% |
| CCN(CC)c1ccc(-c2nc(-c3ccco3)no2)cc1[N+](=O)[O-] | inactive: 7.35% |
| COc1ccc(NC(=O)c2cnc(N3CCCCC3)c3ccccc23)cc1Cl | inactive: -6.16% |
| CCCCC1CCC(C(=O)N2CC(=O)Nc3ccc(Cl)cc3C2c2ccc(F)cc2)CC1 (stereo unspecified) | inactive: -14.7% |
| Cc1ccc(-n2c(=O)c3c4c(sc3n(CC(=O)Nc3ccccc3C)c2=O)CCCCC4)cc1C | inactive: 0.0532% |
| COc1ccccc1CNc1nccn(-c2ccccc2)c1=O | inactive: 28.1% |
| CCOC(=O)CC(=O)CSc1nc2ccccc2c(=O)n1CCc1ccc(S(N)(=O)=O)cc1 | inactive: 8.67% |
| CC(=O)Nc1ccc(NC(=O)CCS(=O)(=O)c2ccc3c(c2)CC(=O)N3C)cc1 | inactive: 12.8% |
| COc1ccc(-c2noc(-c3ccc(NCC4CCCO4)c([N+](=O)[O-])c3)n2)cc1OC (stereo unspecified) | inactive: 0.87% |
| COc1ccccc1Cc1nc2ccccc2nc1SCC(=O)NCc1ccccc1Cl | inactive: -3.27% |
| CN1CCc2nc3sc(C(=O)Nc4ccccc4C(F)(F)F)c(N)c3cc2C1 | inactive: -1.87% |
| Cc1ccc2c(=O)c(C(=O)c3cccc(Cl)c3)cn(CC(=O)Nc3ccccc3C(F)(F)F)c2n1 | inactive: 7.48% |
| CC1=C(C(=O)OC2CCCCCC2)C(c2cccc(Cl)c2)CC(=O)N1 (stereo unspecified) | inactive: -3.05% |
| COc1ccc2c(CNCc3cccs3)c(C(=O)O)n(Cc3ccccc3F)c2c1 | inactive: -18.6% |
| COc1ccc(CC(=O)N2CCc3cc(OC)c(OC)cc3C2COc2ccc(F)cc2)cc1OC (stereo unspecified) | inactive: -19.6% |
| O=C(NCc1ccccc1)c1ccc2oc(=O)n(Cc3ccccc3)c2c1 | inactive: -4.05% |
| CCOC(=O)COc1ccc(C)cc1C(=O)c1ccn2nc(-c3ccc(F)cc3)cc2n1 | inactive: 24.2% |
| CC1CCN(C(=O)c2cccc(NC(=O)c3nsc4ccccc34)c2)CC1 | inactive: -2.25% |
| Cn1c(SCC(=O)Nc2nc3ccccc3s2)ncc(C(=O)Nc2ccc(F)cc2)c1=O | inactive: 4.43% |

| Compound | activity change, negative = cytotoxicity |
| --- | --- |
| COc1cccc(C(=O)Nc2cccc(C(=O)OCc3cc(=O)n4c(C)csc4n3)c2)c1 | inactive: 12.9% |
| Cc1c(C(=O)NC(C)c2ccccc2)sc2nc3n(c(=O)c12)CCCC3 (stereo unspecified) | inactive: 0.491% |
| NS(=O)(=O)c1ccc2nc(NC(=O)COc3ccc(Cl)cc3Cl)sc2c1 | inactive: -2.23% |
| COCCNC(=O)c1ccc2c(c1)N=C(C)c1cc(C)ccc1S2 | inactive: -1.33% |
| CCOC(=O)Cn1c(=O)n(-c2ccccc2OC)c2nc(-c3ccc(C(C)C)cc3)nc(C(N)=O)c21 | inactive: 29.6% |
| CC(C)CC1Nc2ccc(C(=O)NCCCOC(C)C)cc2NC1=O (stereo unspecified) | inactive: 18.8% |
| COc1ccc(C(=O)NCCn2cc(SCC(=O)Nc3ccc4c(c3)OCCO4)c3ccccc32)cc1OC | inactive: -11.2% |
| CCc1nn2c(=O)cc(COC(=O)C(CC)c3ccccc3)nc2s1 (stereo unspecified) | inactive: 2.29% |
| CCOC(=O)c1c(Oc2ccc(C(C)=O)cc2)nnc(-c2ccccc2)c1-c1ccccc1 | inactive: -18% |
| COCCCNC(=O)C1CCN(c2cc(C)nc3c(-c4ccc(Cl)cc4)c(C)nn23)CC1 | inactive: 4.35% |
| O=C(CC1N=C2c3ccccc3N=C(SCC(=O)Nc3ccc(F)cc3)N2C1=O)NCc1cccs1 (stereo unspecified) | inactive: 2.89% |
| CCCNC(=O)CSc1nc(-c2ccc(OC)cc2)cc(C(F)(F)F)n1 | inactive: 16.3% |
| Cc1ccc(NC(=O)CN2C(=O)CC(C)Sc3ccccc32)c(C)c1 (stereo unspecified) | inactive: 2.57% |
| Cc1cccn2c(=O)c3cc(C(=O)Nc4ccc(Cl)c(Cl)c4)sc3nc12 | inactive: -0.0909% |
| Cc1ccc(Nc2ccc(N3CCN(C(=O)c4ccc([N+](=O)[O-])cc4)CC3)nn2)cc1 | inactive: 2.51% |
| Cn1c(SCc2ccc(Br)cc2)nc2c([nH]c3ccccc32)c1=O | inactive: 5.84% |
| Cc1ccc(S(=O)(=O)NCCc2csc(-c3cccc(F)c3)n2)cc1 | inactive: 0.236% |
| Cc1cc(C)n(C(C)CC(=O)NCc2ccc(Cl)cc2)n1 (stereo unspecified) | inactive: 1.72% |
| CCNC(=O)Cn1nc(C)n2c(cc3c(OC)cccc32)c1=O | inactive: 4.92% |
| Cn1c(Oc2ccc(Cl)cc2)nc2c1c(=O)n(Cc1ccc(F)cc1)c(=O)n2C | inactive: 1.71% |
| O=C(NCCc1ccccc1)c1ccc2c(c1)N(Cc1ccc(F)cc1)C(=O)c1ccccc1S2 | inactive: -0.678% |
| CCc1ccccc1NC(=O)CC1Sc2ccc(C(F)(F)F)cc2NC1=O (stereo unspecified) | inactive: -1.32% |
| CCCCSc1nnc2c(n1)OC(C)N(C(C)=O)c1ccccc1-2 (stereo unspecified) | inactive: 4.2% |
| COc1ccc(CCNC(=O)C2COc3ccccc3C2)cc1OC (stereo unspecified) | inactive: -9.35% |

| Compound | activity change, negative = cytotoxicity |
| --- | --- |
| COc1ccc(CCNC(=O)Cc2c(C)c3cc4c(C)coc4c(C)c3oc2=O)cc1 | inactive: 8.3% |
| COc1cc(Cl)c(C)cc1NC(=O)c1cnc(N2CCOCC2)c2ccccc12 | inactive: -17.5% |
| Cc1cc(C)cc(NC(=O)CCC(=O)N2CCSc3ccccc32)c1 | inactive: 3.3% |
| Cc1cc(C)c2nc(NC(=O)c3ccc(S(=O)(=O)N4CCc5ccccc54)cc3)sc2c1 | inactive: 12.3% |
| CCN(C(=O)Cn1cnc2onc(-c3ccc(F)cc3)c2c1=O)c1ccc(OC)cc1 | inactive: -18.1% |
| O=C(Cn1c(=O)n(Cc2ccc3c(c2)OCO3)c(=O)c2oc3ccccc3c21)Nc1ccccc1F | inactive: 10.9% |
| COc1cc(OC)c(NC(=O)N2CCCn3nc(C)cc32)cc1Cl | inactive: -0.983% |
| COc1ccc(-c2nnc(SCC(=O)NC3CCCCC3)nc2-c2ccc(OC)cc2)cc1 | inactive: -2.68% |
| COCCn1c(C)cc(O)c(C(c2ccccc2)N2CCN(c3ccccc3)CC2)c1=O (stereo unspecified) | inactive: -1.5% |
| COc1ccc(NC(=O)CCNS(=O)(=O)c2cccc3nsnc23)cc1Cl | inactive: 11.7% |
| CCn1c(=O)cc(OCC(=O)N2CCN(c3ccc(OC)cc3)CC2)c2ccccc21 | inactive: -8.13% |
| O=C(NCc1nc2ccccc2[nH]1)c1c(F)cccc1F | inactive: 5.6% |
| Cc1cccc(-n2c(C)nc3cc(C(=O)NCCC4=CCCCC4)ccc32)c1 | inactive: 2.05% |
| O=C(CSc1nc(Nc2ccc(F)cc2)c2ccccc2n1)c1ccc(F)cc1 | inactive: 21.2% |
| CCCS(=O)(=O)N1CC(=O)N(c2ccc(C)cc2)C(C)(C(=O)NC2CCCCCC2)C1 (stereo unspecified) | inactive: 5.39% |
| COc1ccc(CCNC(=O)c2cc3sccc3n2Cc2ccc(Cl)cc2)cc1OC | inactive: -2.34% |
| CCOc1ccccc1CN1CCc2nc(Nc3ccc4c(c3)OCCO4)ncc2C1 | inactive: -21.5% |
| CCCOc1ccc(C2CC(=O)Nc3c2c(C)nn3-c2nncc(-c3cccc(OC)c3)n2)cc1OC (stereo unspecified) | inactive: -6.82% |
| COc1cccc(C2=CC(c3cc(Br)ccc3F)n3nnnc3N2)c1 (stereo unspecified) | inactive: -10.9% |
| O=c1[nH]c(=O)n(C2CCCCC2)c(O)c1C1=Nc2ccccc2SC(c2ccc(Cl)cc2)C1 (stereo unspecified) | inactive: -1.13% |
| COc1ccc2cc3cc(C(=O)N4CCN(c5ccccc5F)CC4)oc3nc2c1 | inactive: 1.11% |
| COC(=O)c1ccc(NC(=O)N2CCN(Cc3cc(=O)n4nc(-c5ccc(C)cc5)sc4n3)CC2)cc1 | inactive: 23.5% |
| CC(CNC(=O)CN1C(=O)c2cccnc2Oc2ccc(Cl)cc21)c1ccccc1 (stereo unspecified) | inactive: -4.63% |
| COc1ccc(-c2noc(-c3ccc(N4CCN(c5ccccc5)CC4)c([N+](=O)[O-])c3)n2)cc1 | inactive: 2.87% |
